Results on 30 molecules are retold here after PubChem BioAssay AID1240 (Sanford-Burnham Center for Chemical Genomics, 2008).

The structures appear in SMILES notation. About 800 (1.6%) of roughly 50,000 compounds showed an effect of 50% or more. The list shows a part of the results.

The assay concerns the target Bcl-2-like protein 10 (Homo sapiens) (UniProt Q9HD36). The experiment in a line: TR3 peptide-Bcl-B binding displacers, biochemical primary FP assay, phenotype converters (AID 1240).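 Further: 0% = Bcl-B with tracer peptide and DMSO and 100% = tracer peptide lacking Bcl-B.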 Conditions: GST-Bcl-B / FITC-TR3 peptide fluorescence polarization; stronger effect = higher value; compound at 3.75 mg/L.
Sequence of UniProt Q9HD36 (Q9HD36 whole entry, looked up): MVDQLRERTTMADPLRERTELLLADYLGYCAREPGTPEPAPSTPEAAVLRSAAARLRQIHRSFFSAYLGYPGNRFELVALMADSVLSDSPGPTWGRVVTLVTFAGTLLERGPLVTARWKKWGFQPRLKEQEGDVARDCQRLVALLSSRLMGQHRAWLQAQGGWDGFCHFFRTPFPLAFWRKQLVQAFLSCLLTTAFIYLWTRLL
As for `COC(=O)c1sc(NC(=O)C(Sc2ccccc2)c2ccccc2)c(C#N)c1C` (stereo not given), the displacement was 3.3%.
With `CC1=CC(C)C2C(=O)N(c3ccccc3)C(=O)C2C1` (stereo not given), the displacement was -0.9%.
For the molecule `O=C(O)c1cccc(-c2ccc(/C=C3\SC(=O)N(c4ccc(Cl)cc4)C3=O)o2)c1`, the displacement was -0.6%.
The figure for `Cc1ccccc1C(=O)Nc1nc2ccc(Br)cc2s1` is -3.1%.
Consider `Cc1ccc(N2CC(C(=O)N/N=C/c3c(F)cccc3Cl)CC2=O)cc1` (stereo not given), for which the displacement is -0.4%.
Regarding `CCOC(=O)C1=C(C)N=c2s/c(=C\c3cccc(OC)c3O)c(=O)n2C1c1ccccc1` (stereo not given), the displacement is -0.2%.
Regarding `O=C(Nc1ccccc1F)c1ccn(C(=O)c2cccc(Cl)c2)n1`, the displacement worked out at 4.8%.
On to `CCOc1ccc(CNc2ccc3c(c2)ncn3C)cc1`, for which the displacement was -2.7%.
In the case of `CCc1ccc(-c2nc3cc(NC(=O)COc4ccc(OC)cc4)ccc3o2)cc1`, the displacement came out at 4.2%.
The figure for `CCCc1nc(C)c(-c2ccc(OC)c(OC)c2)c(=O)[nH]1` is -13.4%.
With `COc1ccc(/C=C/C(=O)N2CCN(CCN3C(=O)c4cccc5cccc(c45)C3=O)CC2)cc1`, the displacement worked out at 35%.
The figure for `O=C(CN(c1ccc(F)cc1)S(=O)(=O)c1ccccc1)Nc1cccc(C(F)(F)F)c1` is 4.5%.
As for `CCOC(=O)c1c(N/C=C(\C=O)c2nc3cc(Cl)ccc3o2)sc2c1CCCC2`, the figure is -5.9%; as for `Cc1ccc(COc2ccc3c4c(c(=O)oc3c2)CCCC4)cc1`, 7.5%.
On to `O=C(Nc1nccs1)c1ccc2c(c1)C(=O)N(c1cccc(C(=O)c3ccccc3)c1)C2=O`, for which the displacement came to 1.3%.
Take `Cc1sc(/N=C/c2cc(Br)ccc2O)c(C#N)c1C`: the displacement was determined as 2.2%.
For the molecule `O=C(c1cccnc1)N1CCN(S(=O)(=O)c2ccccc2)CC1`, the displacement was -7.2%.
The figure for `CCNC(=S)Nc1ccccc1Cl` is -7.9%; for `CCC1=NN2C(=N)/C(=C/c3cccs3)C(=O)N=C2S1` it is 13.9%.
As to `CCOC(=O)c1c(C)n(-c2ccccc2OC)c2c1cc(O)c1ccccc12`, the displacement came out at 12.8%.
Regarding `CCOc1cc(/C=c2\sc3nc4cc(C)c(C)cc4n3c2=O)ccc1O`, the displacement is -1.4%.
As for `CCCN(CCC)C1=CC(=O)C(C(C)(C)C)=CC1=O`, the figure is 0.8%.
Take `Cc1ccc(Br)cc1S(=O)(=O)N1CCN(C)CC1`: the displacement turned out to be 13.1%.
`CC(C)CNC(=O)Nc1cccc(Cl)c1`: the displacement worked out at 2.8%.
`Cc1ccc(N2C(=O)/C(=C/c3ccccc3C(=O)O)SC2=S)c(C)c1`: the displacement is 2.3%.
`Cc1c(NC(=O)c2ccc(CN(c3ccccc3)S(C)(=O)=O)cc2)c(=O)n(-c2ccccc2)n1C`: the displacement is 11.9%.
The figure for `CCCOc1ccc(-c2nnc(NC(=O)Nc3ccccc3)s2)cc1` is 6.6%.
The figure for `Cc1cc(C)cc(NC(=O)c2ccc(I)cc2)c1` is 15%; for `CCOC(=O)c1c(NC(=O)c2ccc(Cl)cc2)sc2c1CC(C)(C)OC2` it is -7.1%.
Consider `O=C(Nc1ccc(Br)cn1)c1cc2n(n1)C(C(F)(F)F)CC(c1cccs1)N2` (stereo not given), for which the displacement is -6.1%.
